# In the supplement of paper PMC4166925:
# ± gives the standard deviation of the averaged measurements. In all, about 33,000 sequences were measured (“E-score (dimensionless, -0.5 to 0.5)”: median about -0.046, highest 2% from about 0.36 on). The list shows a part of the results.
# Test system: T1, SpTbr T-box DNA-binding domain (GST fusion)
# T1 sequence: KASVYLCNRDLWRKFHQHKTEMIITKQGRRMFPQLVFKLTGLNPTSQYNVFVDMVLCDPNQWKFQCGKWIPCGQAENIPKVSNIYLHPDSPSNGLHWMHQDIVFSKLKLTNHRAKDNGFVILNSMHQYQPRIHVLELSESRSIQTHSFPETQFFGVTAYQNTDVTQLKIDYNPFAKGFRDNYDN
# Assay: PBM E-score of 8-mer (E-score (dimensionless, -0.5 to 0.5)); Tbr is Tbrain of the sea star Patiria miniata (Pm) or the sea urchin Strongylocentrotus purpuratus (Sp); higher = stronger binding preference; most listed sequences are background and not binding sites
# Conditions: the construct has about 5 more residues each side
# Summary of the method: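 Universal Agilent oligonucleotide arrays, made double-stranded by primer extension, were incubated with 200 nM GST-fused Tbr T-box DNA-binding domain in PBS (pH 7.5). The protein was expressed in BL21 E. coli at 20 °C and purified by glutathione affinity chromatography. After scanning and quantification, the Universal PBM Analysis Suite assigned an enrichment E-score to each ungapped 8-mer, averaged over duplicate arrays.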
row,Sequence,PBM E-score of 8-mer
1,ACCGAGCC,-0.0839 ± 0.099
2,TACTAGGA,-0.158 ± 0.019
3,CCAATCGG,-0.175 ± 0.058
4,AGGACACT,-0.00903 ± 0.01
5,AGAAAAGC,-0.141 ± 0.095
6,GACGAGAA,0.117 ± 0.005
7,GGCGCACA,0.0799 ± 0.062
8,CGTAAAGC,-0.1 ± 0.022
9,TAATATCA,-0.116 ± 0.1
10,CTCATCCA,-0.064 ± 0.12
11,TTGGGAAA,-0.165 ± 0.096
12,ATCTTACA,-0.114 ± 0.044
13,CCCGGTAG,-0.0271 ± 0.13
14,CGGGTTAC,-0.117 ± 0.041
15,ACTTTGCT,0.0326 ± 0.0055
16,TAAGGTAA,-0.107 ± 0.0024
17,GCTGCAGC,-0.0128 ± 0.073
18,GCGGATTA,-0.0408 ± 0.023
19,AACGGATC,0.0408 ± 0.11
20,CGATTAGC,-0.0565 ± 0.091
21,ATCATTCA,-0.0506 ± 0.022
22,CGCTAGAG,0.0489 ± 0.072

row,Sequence,PBM E-score of 8-mer
1,CTTCAGGC,-0.178 ± 0.019
2,GAGGTGTA,0.418 ± 0.014
3,CAAGGGTG,0.325 ± 0.017
4,GGAACGAA,-0.00562 ± 0.061
5,ACCCCTTA,0.00928 ± 0.01
6,GTGTAAGA,0.249 ± 0.057
7,CTACCGTC,-0.191 ± 0.04
8,CTAGAGAG,-0.137 ± 0.031
9,GCTTCGAA,-0.114 ± 0.09
10,CTGCGCGA,0.22 ± 0.044
11,ATATGTGG,0.179 ± 0.024
12,AGACAACT,-0.101 ± 0.041
13,GCCTTTAA,-0.132 ± 0.054
14,AATTCGGC,-0.162 ± 0.0099
15,CGTCATAC,0.0584 ± 0.068
16,GAGAGAGA,0.104 ± 0.023
17,AACGGTAT,-0.163 ± 0.028
18,CGCGGATC,0.0599 ± 0.0062
19,CGCACAGC,0.122 ± 0.012
20,AATGGGTA,-0.0623 ± 0.068
21,GCCCCTCC,0.0214 ± 0.032
22,CCTGCATA,-0.212 ± 0.035

row,Sequence,PBM E-score of 8-mer
1,CCCAGTAC,-0.2758 ± 0.00072
2,AGGACTTA,-0.218 ± 0.018
3,AGTTCCCC,-0.159 ± 0.037
4,AAGTAAGG,-0.0193 ± 0.068
5,TACTCGAA,-0.0428 ± 0.0042
6,AAAGCATC,-0.14597 ± 8.5e-05
7,ATGGGGAA,-0.091 ± 0.05
8,GTGATCAC,0.366 ± 0.022
9,AATCGACC,-0.0169 ± 0.018
10,AAGGGGGC,-0.3603 ± 0.0019
11,AGTGAAGC,-0.0861 ± 0.0037
12,GGTAAACA,0.0291 ± 0.022
13,AAATCTGG,-0.116 ± 0.028
14,AGCTGAAC,-0.164 ± 0.018
15,ATATAATG,-0.127 ± 0.054
16,ACTGTGGG,-0.0461 ± 0.019
17,AGATTGCA,0.0277 ± 0.024
18,CGTAGATA,-0.201 ± 0.0026
19,CCGGGCAA,-0.304 ± 0.029
20,GCGACACA,0.31 ± 0.0039
21,CACCAGTC,0.134 ± 0.069
22,ATCGTAGG,0.148 ± 0.11

row,Sequence,PBM E-score of 8-mer
1,GGGAGACA,0.135 ± 0.034
2,AATGTGCC,0.19 ± 0.092
3,GCGTTACC,0.277 ± 0.0084
4,CCGCGAGC,0.124 ± 0.14
5,GTGTCGCA,0.367 ± 0.021
6,CCCGCGTC,-0.138 ± 0.069
7,GAGTAGCC,-0.158 ± 0.021
8,TCCTTTAA,-0.012 ± 0.035
9,CGAGTGAC,0.201 ± 0.02
10,CCCTGTCA,0.112 ± 0.043
11,GGTTGTTA,0.213 ± 0.048
12,CGAACCAG,0.102 ± 0.015
13,AATGCAAT,-0.166 ± 0.027
14,ACCCTGGA,-0.0782 ± 0.025
15,AGGGCAGA,-0.101 ± 0.0021
16,TCTACCAA,-0.0863 ± 0.01
17,ATCGAGCG,-0.122 ± 0.019
18,GATCTACA,-0.07 ± 0.014
19,ACAGACCT,0.0459 ± 0.023
20,ACGGTTGA,0.129 ± 0.024
